Results taken from PubChem BioAssay AID463173 (ICCB-Longwood Screening Facility, Harvard Medical School, 2010).
Out of some 52,000 compounds screened, about 4,300 (8.3%) were called active. No stated cut-off is given here; in the data, active means survival mostly below about 52% (no sharp cut-off); inactive means mostly above about 56%. This is one part of the list.

What follows are molecules tested on DeltatarO mutant (assay: S. aureus survival, RN4220 and DeltatarO strains – OD600, teichoic acid synthesis inhibitors, primary screen (AID 463173)). Conditions: S. aureus RN4220 wild type/DeltatarO growth, OD600, 18 h, hits give low values, screened at 18.75 µg/mL (by protocol).
O=C(CN1C(=O)COc2ccc(S(=O)(=O)N3CCCC3)cc21)N1CCN(c2ccc(Cl)cc2)CC1 was tested, and the survival was inactive: 90%. In the case of Cc1ccc(O)c(NC(=O)c2noc3c2CCCC3)c1, the survival is reported as inactive: 64%. With COc1ccccc1CNC(=O)CCn1c(=O)c2ccccc2n(CC(=O)Nc2ccc(Br)cc2F)c1=O the survival was inactive: 83%. Cc1ccccc1NC(=O)CSc1nnc(COc2ccc(Cl)cc2)o1 was tested, and the survival was inactive: 45%. CCOCCn1ccc2c(OCC(=O)NCc3ccc(C)cc3)cccc2c1=O was tested, and the survival was inactive: 101%. CCCSc1ncc(Cl)c(C(=O)NCc2ccc(OC)cc2)n1 was tested, and the survival was inactive: 52%. In the case of CN(C)CCNC(=O)c1ccc2c(c1)N(Cc1ccccc1)C(=O)c1ccccc1S2(=O)=O, the survival is reported as inactive: 130%. With COc1ccc(-c2cn3nc(N4CCCC(C(=O)Nc5cccc(Cl)c5C)C4)sc3n2)cc1 (stereo not drawn) the survival was inactive: 82%. For Cc1ccc(NC(=O)CSc2ccc3nnc(CCNS(=O)(=O)c4ccccc4)n3n2)cc1Cl, the survival was inactive: 56%. With Cc1ccc(Cl)cc1NC(=O)N1CCC(CN2CCCCCC2)CC1 the survival was inactive: 83%. For Cc1ccc2cc(CN(C)C(=O)c3cccc(Cl)c3)c(=O)[nH]c2c1, the survival was inactive: 73%. CC(C)N(C(=O)CSc1nnc(Cn2nnc3ccccc32)n1C)C(C)C was tested, and the survival was inactive: 81%. In the case of Cc1ccccc1NC(=O)c1cccc2c(=O)c3c([nH]c12)CCCC3, the survival is reported as inactive: 68%. O=C(Nc1ccc(F)c(Cl)c1)C1CCN(S(=O)(=O)c2ccc3[nH]c(=O)ccc3c2)CC1 was tested, and the survival was inactive: 55%. CCCCNc1nc2c(c(=O)n(C)c(=O)n2C)n1CC(O)COc1ccccc1C (stereo not drawn) was tested, and the survival was active: 42%. In the case of Cc1ccc(C(=O)Nc2nc3n(n2)C(c2ccc(F)cc2)C=C(c2ccccc2)N3)cc1 (stereo not drawn), the survival is reported as active: 43%. Cc1nn(C)c2c1c(C(F)(F)F)cc(=O)n2CC(=O)N1CCCCC1 was tested, and the survival was inactive: 94%. In the case of O=C(O)c1cccc(Nc2ncnc3ccc(Br)cc23)c1, the survival is reported as inactive: 119%. In the case of Cc1ccc2nc(-c3cccc(NC(=O)c4ccc(Br)o4)c3)oc2c1, the survival is reported as active: 15%. With CNC(=O)c1nc(-c2ccccc2)oc1C the survival was inactive: 87%. For COc1ccccc1NCc1cccn1-c1nnc(N2CCCCCC2)s1, the survival was inactive: 67%. With Cc1cc(C)n(-c2nc3ccccc3nc2Nc2ccc(Cl)c(Cl)c2)n1 the survival was active: 0%. With COC(=O)c1ccc(NC(=O)CC2Nc3cc(C)c(C)cc3NC2=O)cc1 (stereo not drawn) the survival was inactive: 56%. With Cc1cccc(OCC(=O)Nc2c(C(=O)N3CCN(c4ccccc4F)CC3)oc3ccccc23)c1 the survival was inactive: 79%. With CCCCC(=O)OCc1cc(=O)n2nc(C3CCCCC3)sc2n1 the survival was inactive: 115%. For CCC1CN(C(=O)Nc2cc(C)ccc2OC)c2cc(Cl)ccc2O1 (stereo not drawn), the survival was active: 44%. For CCOC(=O)CSc1nc2cc3c(cc2c(=O)n1CCCC(=O)NCCc1ccc(OC)c(OC)c1)OCO3, the survival was active: -2%. With CCOC(=O)c1sc(N2C(=O)c3oc4ccc(C)cc4c(=O)c3C2c2ccccc2F)nc1C (stereo not drawn) the survival was inactive: 182%. With COc1cccc(CNC(=O)c2cc(S(=O)(=O)N3CCCCCC3)cn2C)c1 the survival was inactive: 82%. In the case of CCOC(=O)c1c(NC(=O)CSc2cn(CCNC(=O)c3ccc(OC)c(OC)c3)c3ccccc23)sc2c1CCCC2, the survival is reported as inactive: 80%. Cc1ccc(NC(=O)N2CCc3cc(S(=O)(=O)N4CCC(C)CC4)ccc32)cc1F was tested, and the survival was inactive: 105%. With CCOC(=O)c1ccc(N2C(=O)c3[nH]nc(-c4ccc(OC)cc4)c3C2c2ccccc2Cl)cc1 (stereo not drawn) the survival was inactive: 97%. CCCc1cc(=O)n2[nH]c(NC(=O)c3ccccc3Cl)nc2n1 was tested, and the survival was inactive: 111%. In the case of CCOC(=O)N1CCN(C(=O)CN(c2cccc(Cl)c2)S(=O)(=O)c2ccccc2)CC1, the survival is reported as inactive: 59%. COc1ccc(C2c3c(n(C)c4ccccc34)C(=O)N2CC(=O)Nc2cc(Cl)ccc2C)cc1 (stereo not drawn) was tested, and the survival was inactive: 89%. O=C(Nc1ccccc1)N(Cc1cccs1)c1ccc(F)cc1 was tested, and the survival was inactive: 78%. For Cc1ccccc1C(=O)NC1CCN(Cc2nnnn2C2CCCC2)CC1, the survival was inactive: 101%. In the case of Cc1ccc(-n2c(SCC(N)=O)nc(O)c(C)c2=O)cc1, the survival is reported as inactive: 103%. COc1ccc(C)cc1NC(=O)Cn1c(=O)c(C(F)(F)F)nc2ccccc21 was tested, and the survival was inactive: 94%. CN(C)S(=O)(=O)c1ccc2c(c1)N(CC(=O)NCc1ccc(F)cc1)C(=O)CS2 was tested, and the survival was inactive: 124%. For COc1ccc(Oc2c(C(F)(F)F)oc3c(CN4CCCC(C)C4)c(O)ccc3c2=O)cc1 (stereo not drawn), the survival was inactive: 68%. Cc1ccc(NC(=O)Cn2cc3c(n2)CCCC3)c(Cl)c1 was tested, and the survival was inactive: 92%. For COc1ccccc1N1CCN(c2ccc(=O)n(CC(=O)NCc3ccc(OC(C)C)cc3)n2)CC1, the survival was inactive: 97%. In the case of COc1ccc(NC(=O)Cn2c(=O)n(Cc3nc(-c4ccccc4)no3)c(=O)c3cc4c(cc32)OCO4)c(OC)c1, the survival is reported as inactive: 94%. For O=C(Nc1ccc2oc(-c3cccnc3)nc2c1)c1ccc(Br)cc1, the survival was inactive: 65%. In the case of Cc1nn(CC(=O)NCc2ccc(Cl)cc2)c(=O)c2cc3sccc3n12, the survival is reported as inactive: 123%. Cc1ccc(N2CCN(S(=O)(=O)c3cc(C(=O)Nc4cc(Cl)cc(Cl)c4)ccc3F)CC2C)cc1 (stereo not drawn) was tested, and the survival was inactive: 72%. CC(=O)c1ccc(NC(=O)C2Cc3ccccc3N2C(=O)c2ccccc2)cc1 (stereo not drawn) was tested, and the survival was inactive: 107%. For CC(=O)Nc1nonc1-c1nnc(SCC(=O)Nc2cccc(F)c2)n1-c1ccccc1, the survival was active: 19%. In the case of Cc1ccc(CN2CCCn3nc(C(=O)NC(C)C)cc3C2=O)cc1, the survival is reported as active: 0%. COC(=O)c1scc(-c2ccc(C)cc2)c1S(=O)(=O)Nc1ccc(F)cc1F was tested, and the survival was inactive: 87%. For O=C(O)c1ccc(Nc2nc3ccccc3n3cnnc23)cc1, the survival was inactive: 95%. With O=C1C=CC(=O)N1c1ccc(-c2cnc(-c3ccc(N4C(=O)C=CC4=O)cc3)nc2)cc1 the survival was inactive: 73%. In the case of Cc1cccc(-c2nc3scc(CCNS(=O)(=O)c4ccc(Oc5ccccc5)cc4)n3n2)c1, the survival is reported as inactive: 88%. With COc1ccc(-n2nc(C(=O)Nc3cc(OC)c(OC)c(OC)c3)c(=O)n(C)c2=O)cc1 the survival was inactive: 129%. O=C(Nc1ccc2oc(-c3cccnc3)nc2c1)c1ccc(-c2ccccc2OC(F)(F)F)o1 was tested, and the survival was inactive: 61%. In the case of COc1ccc(-c2cc3ccc(O)c(CN4CCC(C)CC4)c3oc2=O)cc1, the survival is reported as inactive: 71%. With CC1=C(c2ccc(C)cc2)S(=O)(=O)NC1=NCCCN1CCN(c2ccccc2F)CC1 the survival was inactive: 74%. In the case of CCOc1ccc(CCNC(=O)c2nn(-c3ccc(OC)c(Cl)c3)c(=O)c3c2c2ccccc2n3C)cc1OCC, the survival is reported as inactive: 90%. Cn1c(=O)c2cc(C(=O)NCCCN3CCN(c4cccc(Cl)c4)CC3)sc2c2ccccc21 was tested, and the survival was inactive: 48%. Cc1nn(-c2ccccc2)c(-n2cccc2)c1C(=O)NCCc1ccc(Cl)cc1 was tested, and the survival was active: 4%. For COc1ccccc1NC(=O)NC1(C(=O)N2CCc3ccccc32)CCCCC1, the survival was inactive: 93%. In the case of COc1ccc(C2CC(=O)N(Cc3ccc(F)cc3)c3ccccc3S2)cc1OC (stereo not drawn), the survival is reported as inactive: 100%. COc1ccccc1C(=O)NCCn1cc(SCc2ccc(C)cc2)c2ccccc21 was tested, and the survival was active: 22%. In the case of CCCCCn1c(=O)[nH]c2cc(C(=O)NCc3ccc(Cl)cc3)ccc2c1=O, the survival is reported as inactive: 71%. In the case of CCC1CCc2nc3sc(C(=O)Nc4ccc(C)cc4)c(N)c3cc2C1 (stereo not drawn), the survival is reported as inactive: 64%. COc1ccc(OC)c2sc(N3CCN(C(=O)c4ccc5c(c4)CCCC5)CC3)nc12 was tested, and the survival was inactive: 88%. For CCc1ccccc1NS(=O)(=O)c1ccc2c(c1)CCN2C(=O)C1CC1, the survival was inactive: 90%. CCc1ccc(-c2nn(CC(=O)NC3CCCCC3)c3c2cnc2ccc(C)cc23)cc1 was tested, and the survival was inactive: 69%. With c1ccc(N2CCN(Cc3cccn3-c3nnc(N4CCN(C5CCCCC5)CC4)s3)CC2)cc1 the survival was inactive: 76%. O=C(CN1CCN(Cc2cccc(Cl)c2)C1=O)NCc1ccc(F)cc1 was tested, and the survival was inactive: 79%. In the case of CCN(c1ccccc1C)S(=O)(=O)c1ccc(N2CCCCS2(=O)=O)cc1, the survival is reported as inactive: 125%. In the case of CCOC(=O)c1ccc(CN(Cc2ccc(Cl)cc2Cl)S(=O)(=O)c2ccc(F)c(C)c2)cc1, the survival is reported as inactive: 89%. CC(C)Cn1c(=O)c2sccc2n2c(CCCC(=O)NCCc3ccc(Cl)cc3)nnc12 was tested, and the survival was inactive: 90%. For O=C(Nc1ccc(Br)cc1)c1ccc(F)c(S(=O)(=O)N2CCCc3ccccc32)c1, the survival was inactive: 90%. With CC(=O)Nc1ccc(N(C)C(C)=O)cc1 the survival was inactive: 97%. In the case of CN=C1SC(CC(=O)NC)C(=O)N1C (stereo not drawn), the survival is reported as inactive: 86%. O=C(COc1ccc(Br)cc1Cl)Nc1ncn[nH]1 was tested, and the survival was inactive: 91%. For COc1ccc(OCC(=O)Nc2ccc3c(c2)nc(CCNC(=O)c2ccco2)n3C)cc1, the survival was inactive: 63%. In the case of CCc1ccc(NC(=O)CSc2nc(-c3ccccc3Cl)nc3c2Cc2c(CO)cnc(C)c2O3)cc1, the survival is reported as inactive: 117%. In the case of COCCCNC1CC(=O)N(c2ccc(OC)cc2)C1=O (stereo not drawn), the survival is reported as inactive: 75%. In the case of CC(C)NC(=O)c1ccc(-n2c(-c3ccccc3)cc3c2CCCC3)cc1, the survival is reported as inactive: 77%. With CCC(=O)c1cc2c(cc1NC(=O)c1cccc(Cl)c1)OCCO2 the survival was inactive: 105%. In the case of CCc1nnc2c(Nc3cccc(F)c3)nc3ccc(C(=O)c4ccccc4)cc3n12, the survival is reported as inactive: 76%. In the case of CCOC(=O)c1cccc(NC(=O)c2cc3c(=O)n(C)c4ccccc4c3n2C)c1, the survival is reported as inactive: 72%. Cc1cc(C)cc(NC(=O)c2ccc3c(c2)nnn3C2CCCC2)c1 was tested, and the survival was inactive: 128%. For Cc1ccc(CNC(=O)CCN2C(=O)COc3ccc(C)cc32)cc1, the survival was active: 50%. For Cc1ccc(NC2=C(CC(=O)O)C(c3ccc(F)cc3)N(c3ccc(C)cc3)C2=O)cc1 (stereo not drawn), the survival was inactive: 58%.
